The full ranking holds about 81,000 sequences; the median of “one-hybrid fitness for binding NBS DNA” is about -0.1, and the highest 2% start at about 0.36. The list shows a part of the results.
B1: Caulobacter ParB omega fusion; a variant is named by its letters at X, in order, B8GW30 (parent)
chain: MESVVVGEPGMSEGRRGLGRGLSALLGEVDAAPAQAPGEQLGGSREAPIEILQRNPDQPRRTFREEDLEDLSNSIREKGVLQPILVRPSPDTAGEYQIVAGERAWRAAQRAGLKTVPIMVRELDDLAVLEIGIIENVQRADLNVLEEALSYKVLMEKFERTQENIAQTIGKSXSHVANXMRLLXLPDEVQSYLVSGELTAXHARAIAAAADPVALAKQIIEGGLSVRETEALARKAPNLSAGKSKGGRPPRVKDTDTQALESDLSSVLGLDVSIDHRGSTGTLTITYATLEQLDDLCNRLTRGI

Variants of: B1
Assay: one-hybrid fitness for binding NBS DNA (the Noc-binding site; scaled: cognate 1, non-cognate 0); higher = stronger binding
Conditions: with NBS DNA site
Summary of the method: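 Selection: bacterial one-hybrid in E. coli USO, HIS3 reporter with the site 19 bp from the promoter, 48 hours at 37°C on M9-minus-histidine plus 0.1 mM IPTG and 5 mM 3-AT. Libraries were Caulobacter ParB with four randomised specificity codons, sequenced on Illumina before and after selection. Fitness is the rescaled log change in variant-to-wild-type read ratio, anchored to the cognate and non-cognate sites.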

Row | Variant | one-hybrid fitness for binding NBS DNA
1 | EEMF | ≤ 0.2
2 | TAKS | ≤ 0.2
3 | QRFP | 0.201
4 | PRCK | ≤ 0.2
5 | QYYE | ≤ 0.2
6 | TVHY | ≤ 0.2
7 | HNDM | ≤ 0.2
8 | THRS | ≤ 0.2
9 | PSMA | ≤ 0.2
10 | IMYG | ≤ 0.2
11 | FPLH | ≤ 0.2
12 | PGTK | ≤ 0.2
13 | TENP | ≤ 0.2
14 | LYGC | ≤ 0.2
15 | ERPA | ≤ 0.2
16 | FQAT | ≤ 0.2
17 | VYHN | ≤ 0.2
18 | FRIS | ≤ 0.2
19 | QLWN | ≤ 0.2
20 | NHFL | ≤ 0.2
21 | LPNL | ≤ 0.2
22 | SVSH | ≤ 0.2
23 | TRPA | ≤ 0.2
24 | RFVK | ≤ 0.2

Row | Variant | one-hybrid fitness for binding NBS DNA
25 | GNKR | ≤ 0.2
26 | VHPR | ≤ 0.2
27 | DQQL | ≤ 0.2
28 | QRQV | 0.397
29 | PRPL | ≤ 0.2
30 | KGIG | ≤ 0.2
31 | KYTS | ≤ 0.2
32 | MKYG | ≤ 0.2
33 | RHWS | ≤ 0.2
34 | TYNV | ≤ 0.2
35 | VHRA | ≤ 0.2
36 | GTTE | ≤ 0.2
37 | RDFK | ≤ 0.2
38 | ITGG | ≤ 0.2
39 | VSLT | ≤ 0.2
40 | DDVI | ≤ 0.2
41 | SGRQ | ≤ 0.2
42 | NEHP | ≤ 0.2
43 | QKDF | ≤ 0.2
44 | TKRL | ≤ 0.2
45 | GVCL | ≤ 0.2
46 | DNWC | ≤ 0.2
47 | VTVS | ≤ 0.2
48 | LHYD | ≤ 0.2

Row | Variant | one-hybrid fitness for binding NBS DNA
49 | NYVS | ≤ 0.2
50 | LPMY | ≤ 0.2
51 | YEKS | ≤ 0.2
52 | EVLC | ≤ 0.2
53 | WTMR | ≤ 0.2
54 | HCTS | ≤ 0.2
55 | HITN | ≤ 0.2
56 | WRDK | ≤ 0.2
57 | QAKQ | 0.408
58 | SFDY | ≤ 0.2
59 | PAYA | ≤ 0.2
60 | AWPN | ≤ 0.2
61 | QKRP | 0.261
62 | ASLA | ≤ 0.2
63 | CNSL | ≤ 0.2
64 | FGRG | ≤ 0.2
65 | SDAR | ≤ 0.2
66 | LNGN | ≤ 0.2
67 | SMAL | ≤ 0.2
68 | DSGT | ≤ 0.2
69 | FDAR | ≤ 0.2
70 | SLPN | ≤ 0.2
71 | KQFT | ≤ 0.2
72 | RDCF | ≤ 0.2

Row | Variant | one-hybrid fitness for binding NBS DNA
73 | QNNW | ≤ 0.2
74 | SPYH | ≤ 0.2
75 | DMAC | ≤ 0.2
76 | RDSE | ≤ 0.2
77 | VGDC | ≤ 0.2
78 | DLND | ≤ 0.2
79 | HLGG | ≤ 0.2
80 | VSPK | ≤ 0.2
81 | GKQW | ≤ 0.2
82 | DLTT | ≤ 0.2
83 | IGGM | ≤ 0.2
84 | KCGG | ≤ 0.2
85 | GYMC | ≤ 0.2
86 | VVSY | ≤ 0.2
87 | IVFR | ≤ 0.2
88 | CSSC | ≤ 0.2
89 | QENL | ≤ 0.2
90 | AFER | ≤ 0.2
91 | FSIG | ≤ 0.2
92 | HPPG | ≤ 0.2
93 | STAM | ≤ 0.2
94 | LKAY | ≤ 0.2
95 | VLLL | ≤ 0.2
96 | YHQT | ≤ 0.2

Row | Variant | one-hybrid fitness for binding NBS DNA
97 | HEPK | ≤ 0.2
98 | HKRT | ≤ 0.2
99 | KNHM | ≤ 0.2
100 | AMTE | ≤ 0.2
101 | STDE | ≤ 0.2
102 | TCSG | ≤ 0.2
103 | FSCS | ≤ 0.2
104 | RYRH | 0.339
105 | SHRT | ≤ 0.2
106 | GSLT | ≤ 0.2
107 | NALK | ≤ 0.2
108 | DMQL | ≤ 0.2
109 | QFTS | ≤ 0.2
110 | LGKN | ≤ 0.2
111 | HPHS | ≤ 0.2
112 | HFTG | ≤ 0.2
113 | KCHW | ≤ 0.2
114 | DTLF | ≤ 0.2
115 | SDCD | ≤ 0.2
116 | RGWY | ≤ 0.2
117 | RAYG | ≤ 0.2
118 | KNSH | ≤ 0.2
119 | TGIR | ≤ 0.2
120 | APSY | ≤ 0.2

Row | Variant | one-hybrid fitness for binding NBS DNA
121 | PGPW | ≤ 0.2
122 | LWSD | ≤ 0.2
123 | PTAM | ≤ 0.2
124 | LLRD | ≤ 0.2
125 | DTSN | ≤ 0.2
126 | VWMT | ≤ 0.2
127 | ISAT | ≤ 0.2
128 | FGLT | ≤ 0.2
129 | KTFS | ≤ 0.2
130 | CTTA | ≤ 0.2
131 | GDNM | ≤ 0.2
132 | ERQC | ≤ 0.2
133 | MSKR | ≤ 0.2
134 | NQLD | ≤ 0.2
135 | SYIT | ≤ 0.2
136 | IHSW | ≤ 0.2
137 | RQIR | ≤ 0.2
138 | VFPL | ≤ 0.2
139 | VESC | ≤ 0.2
140 | ITVA | ≤ 0.2
141 | RVQH | ≤ 0.2
142 | QHGF | ≤ 0.2
143 | SPVD | ≤ 0.2
144 | LQGK | ≤ 0.2

Row | Variant | one-hybrid fitness for binding NBS DNA
145 | PVCY | ≤ 0.2
146 | QMKF | 0.3
147 | SPKH | ≤ 0.2
148 | GPPM | ≤ 0.2
149 | QMLH | ≤ 0.2
150 | QYTA | 0.251
151 | IIIV | ≤ 0.2
152 | GSPQ | ≤ 0.2
153 | WTKS | ≤ 0.2
154 | LYSF | ≤ 0.2
155 | TYYR | ≤ 0.2
156 | MGRM | ≤ 0.2
157 | EHHG | ≤ 0.2
158 | KVIC | ≤ 0.2
159 | YGGG | ≤ 0.2
160 | VSAG | ≤ 0.2
161 | FLGP | ≤ 0.2
162 | LPYE | ≤ 0.2
163 | VITV | ≤ 0.2
164 | LCIK | ≤ 0.2
165 | RYVN | ≤ 0.2
166 | HSMK | ≤ 0.2
167 | LTCL | ≤ 0.2
168 | VSVC | ≤ 0.2

Row | Variant | one-hybrid fitness for binding NBS DNA
169 | QSLM | ≤ 0.2
170 | KLQL | ≤ 0.2
171 | ESYV | ≤ 0.2
172 | VPVM | ≤ 0.2
173 | QGSC | ≤ 0.2
174 | GVYT | ≤ 0.2
175 | ALMN | ≤ 0.2
176 | QNSV | ≤ 0.2
177 | VSFA | ≤ 0.2
178 | RHGD | ≤ 0.2
179 | RAQN | ≤ 0.2
180 | NVSG | ≤ 0.2
181 | LVSW | ≤ 0.2
182 | ANDP | ≤ 0.2
183 | ANNK | ≤ 0.2
184 | ASSR | ≤ 0.2
185 | GPLN | ≤ 0.2
186 | KMGG | ≤ 0.2
187 | NQHH | ≤ 0.2
188 | RHFY | ≤ 0.2
189 | GPRT | 0.369
190 | RCLW | ≤ 0.2
191 | YDYS | ≤ 0.2
192 | NSYW | ≤ 0.2

Row | Variant | one-hybrid fitness for binding NBS DNA
193 | IDYG | ≤ 0.2
194 | SGKL | ≤ 0.2
195 | DPEY | ≤ 0.2
196 | VNHC | ≤ 0.2
197 | AERH | ≤ 0.2
198 | HPYE | ≤ 0.2
199 | LLIC | ≤ 0.2
200 | YVSL | ≤ 0.2
201 | AHNI | ≤ 0.2
202 | THAP | ≤ 0.2
203 | YNPM | ≤ 0.2
204 | LDCA | ≤ 0.2
205 | HCST | ≤ 0.2
206 | QSRS | 0.64
207 | SGHY | ≤ 0.2
208 | THAG | ≤ 0.2
209 | WCNF | ≤ 0.2
210 | VMKT | ≤ 0.2
211 | SLQW | ≤ 0.2
212 | AHGG | ≤ 0.2
213 | NANG | ≤ 0.2
214 | YESW | ≤ 0.2
215 | SGEM | ≤ 0.2
216 | CCMC | ≤ 0.2

Row | Variant | one-hybrid fitness for binding NBS DNA
217 | QHPS | ≤ 0.2
218 | PGAI | ≤ 0.2
219 | RRRS | 0.74
220 | PNKE | ≤ 0.2
221 | SQAR | ≤ 0.2
222 | QRFS | 0.597
223 | CERT | ≤ 0.2
224 | LYRF | ≤ 0.2
225 | KVPK | ≤ 0.2
226 | PRGY | ≤ 0.2
227 | SCPW | ≤ 0.2
228 | RWKC | ≤ 0.2
229 | WRWI | ≤ 0.2
230 | HYTH | ≤ 0.2
231 | FKGG | ≤ 0.2
232 | RWGF | ≤ 0.2
233 | NFSV | ≤ 0.2
234 | IFNM | ≤ 0.2
235 | SCSV | ≤ 0.2
236 | RTER | 0.262
237 | QQES | 0.23
238 | TYRG | ≤ 0.2
239 | GMLC | ≤ 0.2
240 | AAIH | ≤ 0.2

Row | Variant | one-hybrid fitness for binding NBS DNA
241 | PLFI | ≤ 0.2
242 | ALSS | ≤ 0.2
243 | ARKA | ≤ 0.2
244 | PPQR | ≤ 0.2
245 | VSRR | ≤ 0.2
246 | RDHD | ≤ 0.2
247 | DDLC | ≤ 0.2
248 | HPGN | ≤ 0.2
249 | GCAM | ≤ 0.2
250 | TRFS | ≤ 0.2
251 | WINA | ≤ 0.2
252 | QDII | ≤ 0.2
253 | RCQF | ≤ 0.2
254 | LPEK | ≤ 0.2
255 | ALLD | ≤ 0.2
256 | PAVE | ≤ 0.2
257 | DPLV | ≤ 0.2
258 | LCLC | ≤ 0.2
259 | LLIS | ≤ 0.2
260 | HVLE | ≤ 0.2
261 | PSIT | ≤ 0.2
262 | TDSM | ≤ 0.2
263 | RYYG | ≤ 0.2
264 | MYAG | ≤ 0.2

Row | Variant | one-hybrid fitness for binding NBS DNA
265 | RVPM | ≤ 0.2
266 | QHTP | ≤ 0.2
267 | GMYG | ≤ 0.2
268 | AVGS | ≤ 0.2
269 | RQFT | 0.204
270 | PKTN | ≤ 0.2
271 | VEAN | ≤ 0.2
272 | RTEW | ≤ 0.2
273 | MIKC | ≤ 0.2
274 | TFQN | ≤ 0.2
275 | YRKI | ≤ 0.2
276 | RGGH | ≤ 0.2
277 | GNTS | ≤ 0.2
278 | KWHT | ≤ 0.2
279 | GGRC | ≤ 0.2
280 | WWKS | ≤ 0.2
281 | DYHV | ≤ 0.2
282 | GTSW | ≤ 0.2
283 | IYHY | ≤ 0.2
284 | FRQS | ≤ 0.2
285 | LHGD | ≤ 0.2
286 | RYVH | ≤ 0.2
287 | FALG | ≤ 0.2
288 | QLWY | ≤ 0.2

Row | Variant | one-hybrid fitness for binding NBS DNA
289 | TYAR | ≤ 0.2
290 | AGYK | ≤ 0.2
291 | KEKL | ≤ 0.2
292 | GYSY | ≤ 0.2
293 | QGED | ≤ 0.2
294 | GRDV | ≤ 0.2
295 | YRPY | ≤ 0.2
296 | SSFL | ≤ 0.2
297 | KIAW | ≤ 0.2
298 | TIRA | ≤ 0.2
299 | VPPD | ≤ 0.2
300 | RNQS | 0.281
301 | VWAG | ≤ 0.2
302 | RWDT | ≤ 0.2
303 | PGRF | ≤ 0.2
304 | EAYG | ≤ 0.2
305 | RYWI | ≤ 0.2
306 | KHRT | 0.266
